According to the supplement of paper PMC9446081:
Out of some 39,000 compounds screened, about 220 (0.56%) showed activity. The list shows a part of the results.

Test system: Escherichia coli K-12 BW25113
Test: relative growth (OD600 normalised to plate interquartile mean) (fraction); higher = less growth inhibition, active = 0.2 or less
Details: 50 µM; LB; incubation time: overnight (16-24 h)
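Further: static incubation at 37 °C against the wild-type strain, values averaged over two biological replicates.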

Structure (SMILES)	relative growth
COc1ccc(cc1)CN1C[C@]2(CN(C2)C(=O)C2CCOCC2)c2c(n(c3cc(ccc23)OC)C)[C@H]1CO	inactive: 0.993
NC[C@H]1O[C@H](O[C@H]2[C@H](O)[C@@H](O[C@H]3O[C@H](CO)[C@@H](O)[C@H](N)[C@H]3O)[C@H](N)C[C@@H]2N)[C@H](N)[C@@H](O)[C@@H]1O	active: 0.0328
C[C@H](CO)N1C[C@H](C)[C@H](CN(C)S(=O)(=O)c2cccc(F)c2)Oc2ncc(Br)cc2C1=O	inactive: 0.993
COc1ccc2c3c(n(c2c1)C)[C@@H](CO)N(C[C@]13CCN(CC1)Cc1cccc(c1)F)C(=O)Nc1ccc(cc1)F	inactive: 0.961
Cc1ccc2ncc(-c3ccc4cc(C)ccc4n3)cc2c1	inactive: 1.03
CN1CCC(Nc2nc(Nc3ccc(Oc4ccccc4)cc3)c3c(O)ncc(Br)c3n2)CC1	inactive: 1.04
C=CC(C1=CC(=O)C(OC)=CC1=O)c1ccc(OC)cc1 (stereo not given)	inactive: 1.15
CN(C)CCCNC(=O)C[C@H]1CC[C@@H]2[C@H](COC[C@@H](O)CN2S(=O)(=O)c2ccc(F)cc2)O1	inactive: 0.994
N#Cc1cccc2ccsc12	inactive: 0.955
C[C@@H]1CCCCO[C@@H](CN(C)Cc2ccc(C(=O)O)cc2)[C@@H](C)CN([C@H](C)CO)C(=O)c2cc(NC(=O)Nc3ccccc3)ccc2O1	inactive: 1.01
Cc1ccc(S(=O)(=O)N(C)C[C@H]2Oc3ccc(NS(=O)(=O)c4cccs4)cc3C(=O)N([C@@H](C)CO)C[C@H]2C)cc1	inactive: 1.05
C[C@@H]1CN([C@@H](C)CO)C(=O)c2cc(NS(=O)(=O)c3ccc(Cl)cc3)ccc2O[C@@H](C)CCCCO[C@H]1CN(C)C(=O)Nc1cccc2ccccc12	inactive: 1.01
COc1ccc(NC(=O)N(C)C[C@@H]2OCCCC[C@H](C)Oc3ccc(NS(=O)(=O)c4ccc(OC)cc4)cc3C(=O)N([C@H](C)CO)C[C@H]2C)cc1	inactive: 0.993
C[C@H](CO)N1C[C@H](C)[C@H](CN(C)Cc2ccc3c(c2)OCO3)Oc2c(NS(C)(=O)=O)cccc2C1=O	inactive: 1
NCCCC[C@@H]1NC(=O)[C@H]2C[C@@H](C(=O)O)[C@@H](c3cccc(OCCO)c3)N2C1=O	inactive: 1.02
C[C@@H]1CN([C@H](C)CO)C(=O)c2cccc(NC(=O)C3CCOCC3)c2O[C@H]1CN(C)Cc1ccc(-c2ccccc2)cc1	inactive: 1
CO[C@H]1CN(C)C(=O)c2ccc(NC(=O)Nc3ccc(Cl)cc3)cc2OC[C@H](C)N(C(=O)Nc2c(C)noc2C)C[C@H]1C	inactive: 1
C[C@@H]1CN([C@H](C)CO)C(=O)CCCn2cc(nn2)CO[C@@H]1CN(C)C(=O)Nc1ccc(C(F)(F)F)cc1	inactive: 0.969
CC(C)(C#N)c1cc(Cn2cncn2)cc(C(C)(C)C#N)c1	inactive: 1.01
C[C@@H]1CN([C@H](C)CO)C(=O)c2cc(NC(=O)Cn3cnnn3)ccc2O[C@H]1CN(C)C(=O)Nc1ccc2c(c1)OCO2	inactive: 0.999
COc1ccc(CN(C)C[C@@H]2OCCCC[C@@H](C)Oc3ccc(NS(=O)(=O)c4ccc(C)cc4)cc3C(=O)N([C@H](C)CO)C[C@H]2C)cc1	inactive: 0.982
O=C(NO)c1ccc(C(=O)N/N=C/c2cccc(B(O)O)c2)cc1	inactive: 0.98
COc1ccc(S(=O)(=O)Nc2ccc3c(c2)C(=O)N([C@@H](C)CO)C[C@H](C)[C@@H](CN(C)C(=O)CCC(F)(F)F)OCCCC[C@H](C)O3)cc1	inactive: 0.987

Structure (SMILES)	relative growth
COc1ccc(CN(C)C[C@@H]2OCCCC[C@@H](C)Oc3ccc(NS(=O)(=O)c4cccs4)cc3C(=O)N([C@@H](C)CO)C[C@H]2C)cc1	inactive: 1.01
Cc1noc(C)c1S(=O)(=O)N(C)C[C@@H]1OCCCC[C@@H](C)Oc2ccc(NC(=O)Nc3ccc(C(F)(F)F)cc3)cc2C(=O)N([C@@H](C)CO)C[C@@H]1C	inactive: 1
Cc1noc(C)c1S(=O)(=O)Nc1ccc2c(c1)C(=O)N([C@@H](C)CO)C[C@@H](C)[C@H](CN(C)S(C)(=O)=O)O2	inactive: 0.976
Cn1cnc(S(=O)(=O)N2C[C@@H](O)COC[C@@H]3O[C@H](CC(=O)NCc4cccc(F)c4)CC[C@H]32)c1	inactive: 1
CCS(=O)(=O)NCC[C@H]1CC[C@H](NC(=O)C2CC2)[C@@H](CO)O1	inactive: 0.983
Oc1c(I)cc(Cl)c2cccnc12	inactive: 0.463
C[C@@H]1CN([C@H](C)CO)C(=O)c2ccccc2-c2ccccc2CO[C@@H]1CN(C)C(=O)Nc1cccc(F)c1	inactive: 1.01
CCCCCCCCCCCCCCCC(=O)CCO	inactive: 0.936
C[C@H](CO)N1C[C@H](C)[C@H](CN(C)S(=O)(=O)c2ccc(Cl)cc2)Oc2c(NC(=O)c3cnccn3)cccc2C1=O	inactive: 0.981
COc1ccc(NC(=O)N(C)C[C@H]2OCCCC[C@@H](C)Oc3ccc(NC(=O)c4ccccc4)cc3C(=O)N([C@H](C)CO)C[C@H]2C)cc1	inactive: 0.992
N=C(N=C(N)N)N1CCOCC1	inactive: 0.952
COc1ccccc1-c1cnc2c(c1)C(=O)N([C@@H](C)CO)C[C@H](C)[C@H](CN(C)C(=O)c1ccncc1)O2	inactive: 1
CN1C(=O)c2cc(NC(=O)C3CCOCC3)ccc2OC[C@@H]2O[C@@H](CC(=O)NCCc3ccncc3)CC[C@H]21	inactive: 0.994
CN1CC(=O)Nc2ccc([N+](=O)[O-])cc2C1=O	inactive: 0.993
C[C@@H]1CN([C@H](C)CO)C(=O)c2cc(NC(=O)Nc3cccc4ccccc34)ccc2O[C@@H](C)CCCCO[C@H]1CN(C)Cc1ccc(C(F)(F)F)cc1	inactive: 1.06
Cc1ccc(S(=O)(=O)N(C)C[C@@H]2Oc3ccc(NS(=O)(=O)c4cn(C)cn4)cc3C(=O)N([C@@H](C)CO)C[C@H]2C)cc1	inactive: 0.995
C[C@H]1CCCCO[C@H](CN(C)S(=O)(=O)c2ccc(Cl)cc2)[C@@H](C)CN([C@@H](C)CO)C(=O)c2cc(NC(=O)CCC(F)(F)F)ccc2O1	inactive: 1.04
C[C@H]1CN([C@@H](C)CO)C(=O)c2cc(NS(=O)(=O)c3cn(C)cn3)ccc2O[C@@H]1CN(C)Cc1ccccc1	inactive: 0.971
C[C@H](O)[C@H](O)[C@@H](O)[C@@H](O)/C=N/NC(=O)c1cccc(C(=O)NO)c1	inactive: 0.981
C[C@H]1CN([C@@H](C)CO)C(=O)Cc2cc(NC(=O)Cn3cnnn3)ccc2O[C@H]1CN(C)C(=O)Nc1ccc(F)cc1	inactive: 1.03
O=C(C[C@@H]1C[C@H]2c3cc(NS(=O)(=O)c4ccc(F)cc4)ccc3O[C@H]2[C@H](CO)O1)N1CCCCC1	inactive: 0.988
C[C@H]1CN([C@@H](C)CO)C(=O)c2cc(NC(=O)Nc3cccc4ccccc34)ccc2O[C@@H]1CN(C)S(=O)(=O)c1ccccc1	inactive: 1.03
